Source: the supplement of paper PMC3334620
Whole data set: some 33,000 sequences, median “E-score (-0.5 to 0.5)” near -0.016, cut for the highest 2% near 0.31. This is one part of the list.

The sequences below were run against Cst6 (UniProt P40535) (assay: PBM E-score (8-mer binding enrichment) (E-score (-0.5 to 0.5)); higher = stronger / more preferred TF binding; most listed sequences are background and not binding sites). Conditions: protein concentration: 200 nM; construct: GST-DNA-binding domain.
Outline: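 Universal all-10-mer Agilent arrays, double-stranded by primer extension on fresh or once-stripped slides, were probed with about 100-200 nM GST-tagged yeast transcription factors made by PURExpress. Fluorescent anti-GST detected bound protein, and masliner normalised the scans. E-scores from the Universal PBM Analysis Suite were given to each ungapped eight-base word pooled with its reverse complement.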

Sequence | PBM E-score
TGGGACCA | -0.146
AGAGCCAA | -0.0725
GTGCGATA | 0.0965
ACTATGTA | 0.148
ATGACTTG | -0.025
ACTCCAAT | -0.192
GCGTGAAA | 0.119
TCCTCCAA | -0.173
CTGAACTC | -0.256
GAGTGTGC | -0.102
ATGACTGC | 0.0273
AATACCCG | -0.0669
CTGGCAAA | -0.00524
ATCTTCGA | 0.0607
GCCCACGA | -0.336
ATGGCCTC | -0.128
AACCGAGC | 0.0238
AGCGAGTC | -0.244
AGTGCAAG | 0.0144
GAGCGCCC | -0.214
CACAATTC | 0.231
TACATAAA | 0.255
GAGAATGC | -0.00135
CCCCAAGC | -0.113
CGGCCGAG | -0.0503

Sequence | PBM E-score
ACAACGCC | 0.153
TCAATAGA | 0.222
CCTAGGGA | -0.0498
ACTCGGGA | -0.202
CGATCCGC | -0.101
AGTATTAC | 0.184
AACGTGGC | -0.0483
AAGCCCAA | -0.0495
CACAGAGA | 0.0716
CAATCTAG | 0.101
CAACCGGA | -0.139
CGGTAAAA | 0.0944
GACCTGCC | -0.265
CACTAACG | 0.0239
CCTTCCTC | -0.282
GCGTGACC | 0.0522
GAATATTC | 0.146
CACATGTG | 0.00714
CATCAACA | 0.236
AGACTGGA | -0.213
AATGTCCG | -0.039
TGAGCTCA | 0.374
CCTGGCTA | -0.109
CACAAGGC | 0.0636
CAGGAGTC | -0.0678

Sequence | PBM E-score
CCCTCAGG | -0.34
ACTGAAAT | 0.148
ATGATGTC | 0.478
AGTTACTG | -0.0692
AGAAATGG | 0.142
ATGAGTTG | 0.0721
CGTACGCC | 0.111
GGGAGCTA | -0.326
ATAAGGCA | 0.24
CTCGTGGA | -0.178
GAGCGTGA | -0.053
GAATGTCC | -0.0902
AAGGATCA | 0.0182
ATGAAGAC | 0.0948
AACTTTAA | 0.146
TAGCTGGA | -0.26
GAAAGCCA | -0.086
CTGTCACA | 0.0581
AAAAATTA | 0.333
ATGCGTGC | 0.00984
ACGATACC | -0.124
CGTGTCTC | 0.0239
AAGCAGAT | -0.0156
CGTACACA | -0.0476
TGCGATAA | 0.104

Sequence | PBM E-score
ATGTCACC | 0.465
TGCAAACA | -0.0811
ACTAGGCG | 0.23
CGAATCGA | 0.169
ATCCCGCG | 0.128
CGTTGCTC | -0.00709
GTTGTAGA | 0.00219
CGAAAAGA | 0.313
ATGTAGAA | 0.119
AAATCGCC | 0.049
CAATCAAG | -0.0503
CACAGTTA | 0.186
CATAAATC | 0.148
GATTTGGA | -0.0479
GAGTAACA | 0.028
ATTATGCA | 0.144
AAAGCATG | -0.039
CCGGGAAA | -0.148
GGGAGGGA | -0.237
GCTCTCCC | -0.25
AAAATATT | 0.233
AGTGGACC | -0.346
AATGGGGC | -0.0991
ATGTCCGA | -0.158
CGATTTAA | 0.0976

Sequence | PBM E-score
CATTAAAC | 0.116
CAGGGATG | -0.138
CTGTAACC | 0.176
ACATACCC | 0.159
GCAAAGGA | 0.115
ATCAACTA | 0.237
ATATTCCC | 0.0685
GAATTGCC | -0.00514
AAAGCAGA | 0.066
GACCAACC | -0.139
CAAGAGGA | -0.0221
CGCCAGCG | -0.218
TTGTGAAA | 0.115
ACATGATC | 0.206
AAGGTTTA | 0.0326
ACGGAAGC | -0.00178
CACCCTGC | -0.0774
GCATTCCC | -0.161
TACCTCAA | 0.0355
AAGGGTCA | -0.103
ATCTTCTA | 0.0735
CGGGCGAA | -0.207
GGGCGAAC | 0.0255
GTCGGTTA | -0.0355
ACCGTCGT | -0.0178

Sequence | PBM E-score
CATCTTCC | 0.195
ACATTGGC | -0.0931
CACCGGAC | -0.175
CTGGGCTA | -0.283
CTATTTCA | 0.227
CGCCAGGA | -0.124
AGCGACGG | 0.00159
ACGAGCAG | -0.0773
AAATCATA | 0.275
AAGCGAAC | 0.0033
CGCGCTCA | 0.0199
ATACGACC | -0.103
GACGGGAC | -0.242
GAATCCAA | -0.0631
AAGGAAAC | -0.00681
ACCCAGTG | -0.0761
ACACACTA | 0.0411
AATGCATT | 0.0825
ATCCAACG | -0.0807
AACCATGA | 0.224
CAGGTTAC | -0.146
CGGAGAGA | -0.204
CAGGATGG | -0.213
AGGCGAAA | -0.0196
TAGCGATA | 0.0862

Sequence | PBM E-score
CTCTCACC | -0.0952
ACAGCCCT | -0.167
CGACATCG | -0.122
GTTATCTA | -0.0154
GACCAGCA | -0.152
AACACCGT | -0.137
TCCTTGAA | -0.0366
AGGGTTCG | -0.332
TATTGACA | 0.0874
ACGGATAT | 0.292
CCAGGTCC | -0.36
CTGCGGAA | -0.171
AGCGCGAA | 0.136
GATATTCA | -0.0707
AATTAGCT | 0.0936
GCCCCCCC | -0.331
CCAAATAC | 0.0357
ACAACACT | 0.0552
ACGCCGTA | 0.349
GGATGTTA | -0.0489
CTCGGAAA | -0.128
CTTGCAGA | -0.138
CTATAATA | 0.0135
AGGGGTAT | -0.287
CAAGCATA | 0.0503

Sequence | PBM E-score
GTCGCGGA | -0.198
AACATAGC | -0.148
GCATAGGC | -0.0795
CACATCCA | 0.0192
CGATAGCG | -0.0736
CCAGCGGA | -0.342
ACTAAATA | 0.198
ACGCATGC | 0.12
CCCTCTTA | -0.014
AAGGCTTG | -0.0146
CAACGTAC | 0.0567
CATAACCC | -0.12
CTTGCAAA | 0.0673
GAATTGTA | 0.0848
AGAAACAA | 0.295
CAGATGCA | -0.269
AACCACGA | 0.0283
GCTTCGGA | -0.15
GATTATGA | 0.278
CAAGTTCA | 0.108
CCGTTCGA | 0.197
CGCGGCTC | 0.28
CTGCAGAA | 0.159
ATACAGAA | 0.216
CATGGCGG | -0.023

Sequence | PBM E-score
CCGTGGCG | 0.101
CCTTAAAG | -0.0897
AGCTGGTG | -0.169
CATTTAGG | -0.191
ACCACGGG | -0.163
AATTTTAC | 0.326
GTGTTATA | 0.16
CCAAAAAG | 0.0341
GTTGGGTA | -0.165
GGAGGCTA | -0.258
CCCAAGGC | -0.0244
ATAATCGC | 0.155
ACATTAAG | 0.128
CCCGCCGA | -0.226
ACCGGTTA | 0.0584
ACATCGCG | -0.0687
TAAGTTAA | 0.187
GATTGTGC | 0.0525
CCTGCCGC | -0.156
TCGGTAAA | 0.0207
ACCAGCTC | -0.12
CGTCAACG | 0.344
ATGCCCGG | -0.307
AAAATCCT | 0.0302
CCTGGATA | -0.211

Sequence | PBM E-score
CCGCCGCG | 0.2
ATCCTTTG | 0.0497
ACCTTTTA | -0.0433
GATCGGCC | -0.106
GTATGCAC | 0.12
CACTTTTC | 0.0833
AACACTCA | 0.16
AGGAGCCA | -0.278
TGGTGGAA | -0.125
ACAGGCCG | -0.126
GAGTACTC | -0.205
GCAGTGTA | 0.112
AGTCTCCG | -0.0256
GCTGCCAC | -0.126
AAGGACAT | -0.0531
GAAAAATA | 0.27
ACTGACGA | 0.201
AGATACTC | 0.0184
GAAAGCGC | -0.00012
GAACCTTC | -0.115
ACCAAAGT | -0.0487
AACCAGTG | -0.241
CGAAGCAG | -0.0586
TTCCTCAA | 0.0662
ACAGCTGG | -0.134

Sequence | PBM E-score
GTAAAAGA | 0.118
CGTGTACA | 0.188
CACTTTAA | 0.166
AGATTCGC | 0.0745
ATACCACG | 0.128
ATGGCGTG | 0.113
CCTAGACG | -0.155
CTAATTTA | 0.321
CACTGCAG | -0.0683
CGCAAGTA | 0.0408
AACCGAAC | -0.00922
CCGCTCGA | -0.0821
CCTGTCTA | -0.164
CGGTGAGC | -0.227
ATAGTGTC | -0.00632
CAACTCCC | -0.0475
CGCTTCGC | -0.0922
AAGTTCAC | -0.0134
AGTTCACG | -0.0175
CCTGGCGC | -0.0314
CCGACAAA | 0.111
CCGAGAAG | -0.187
AACCCAAT | -0.017
CAACCCAC | 0.0355
CCCTGTAC | -0.296

Sequence | PBM E-score
ATTCACGG | 0.197
GTTAAGAA | -0.0587
AGCTAGTG | -0.0105
CCTCGTGA | 0.106
AATGGACA | 0.139
GCGGAGAA | -0.0169
TGTTATAA | 0.251
GTAAGCCA | -0.124
CATCATGC | 0.362
AAGCGGAA | 0.0463
GACGCAAC | 0.173
AAGTCCAT | -0.23
ACAAGGTC | -0.0157
ATCCATCC | 0.0553
ATTTCTTG | 0.231
ATATTCTC | 0.275
CATATGAC | 0.366
GAGTTACA | 0.115
CATTATGC | 0.146
CCCATATA | -0.0342
GGGACACA | -0.153
AGTGAAAC | 0.0321
CCCATCCG | -0.109
TCTGAAAA | 0.0835
CATATAAA | 0.236

Sequence | PBM E-score
GAGCCACC | -0.265
ATGCAAAA | 0.22
CATCACCG | 0.305
CGGATCTC | -0.106
CCTCGAAC | -0.209
CTCTCGGA | -0.0484
GCACTTCA | 0.138
CGTATAAG | 0.132
ATCTGACG | 0.221
ACGACAGC | 0.123
AATAGATT | 0.152
CGATTAAG | 0.146
CACCCTAG | 0.0039
ATAATGTG | 0.119
ATCGCATG | 0.0749
AAGATACT | 0.0395
AATGTGGC | -0.0637
ACCCTCAG | -0.198
GCGAGCGA | -0.0462
GTGTTCCA | -0.202
CCAAGTTC | -0.182
CGGCCCTA | -0.122
GCACCAGC | -0.176
GTAAACTA | 0.203
GCCGCTCA | 0.0823

Sequence | PBM E-score
ACGGGAGG | -0.251
CAACGAAA | 0.221
GTTAATCA | 0.282
ATTAGGAC | -0.166
TCTTACAA | 0.065
AGTTGCGG | 0.0879
ACGCCCTA | -0.121
AGCCGTGA | 0.198
ACAGTTAA | 0.0795
ATCCAGAC | -0.0848
GCACCAAA | 0.0915
CTTAGTAC | 0.0188
AGAGGTGA | 0.18
AGTTAATC | 0.0892
AGTCAACG | -0.102
ATGGAACG | -0.106
GAAAACAC | 0.0904
CGTACCGC | 0.0844
ACACGGGA | -0.0656
